# Reference: PubChem BioAssay AID504832 (National Center for Advancing Translational Sciences (NCATS), 2011)
# Screen size: about 310,000 compounds; about 18,000 (5.8%) were called active. The shares of active, inactive and inconclusive entries below differ from those in the screen. Calls come from the whole dose curve; as a rule, active = well fitted inhibition curve with a large enough effect; inconclusive = small, poorly fitted or top-dose-only effect, or another doubt; inactive = no such curve, though single readings can be large or run the other way. Potencies of inconclusive entries are left out as doubtful fits.
# Assay: Primary qHTS for delayed death inhibitors of the malarial parasite plastid, 48 hour incubation
# Details: P. falciparum luciferase growth in erythrocytes; series mostly up to 28.7 µM; activity change, negative = inhibition: at the top concentration
# How it was run: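 Compounds are pin-transferred into medium, infected erythrocytes (2% hematocrit, 0.1% parasitemia final) are added, and plates sit one parasite generation at 37 C in 5% CO2. Detection reagent is then added and luminescence measured.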
# % is set by controls: 0 for no effect and ±100 for the full control effect; potency is the fitted concentration of half-maximal effect; tags give direction and shape of the fitted curve.
Structure (SMILES),"activity change, negative = inhibition",Potency
OC(COCc1ccc2c(c1)OCO2)CN1CCCCC1 (stereo not given),inactive: 0%,–
CC(=O)c1cccc(NC(=O)c2sc(Cl)nc2C)c1,inactive: -8.6%,–
Cc1ccc(S(=O)(=O)N2CCC(=O)N(C(COCc3ccc(Cl)c(Cl)c3)Cc3ccccc3)CC2)cc1 (stereo not given),–,active: 9.28 µM
Cc1ccc(-c2nn(CC(=O)NCc3cc(-c4nn(C)c(=O)c5ccccc45)ccc3C)c(=O)c3ccccc23)cc1,inactive: 5.87%,–
Cc1cc(C(=O)N/N=C/c2cc(Cl)cc([N+](=O)[O-])c2O)n[nH]1,inactive: 63.1%,–
CC(C)(C)c1ccc(C2(C)NC(=O)N(CC(=O)NC3CCS(=O)(=O)C3)C2=O)cc1 (stereo not given),–,"inconclusive [inhibitor, single point]"
CCC1(CC)C(=O)C=CNC1=O,–,"inconclusive [inhibitor, partial curve]"
CCCCC1(C)OC(=O)C(=Cc2c[nH]c3ccccc23)C(=O)O1 (stereo not given),inactive: 17.3%,–
Cc1ccc(CN2CCC(Oc3cccc(C(=O)N(C)CCN(C)C)c3)CC2)cc1C,–,active: 9.28 µM
Cc1ccc2[nH]c3c(N4CCN(Cc5ccc6c(c5)OCO6)CC4)ncnc3c2c1,–,"inconclusive [inhibitor, partial curve, poor fit]"
Cc1ccc2c(c1)C1C=CCC1C(C(=O)O)N2 (stereo not given),–,"inconclusive [inhibitor, partial curve, poor fit]"
COc1ccc(C(=O)N2CCN(C(=O)c3ccc(-c4ccccc4)cc3)CC2)cc1OC,–,"inconclusive [inhibitor, single point]"
O=C(OCCc1cc2ccccc2c(=O)o1)c1ccccc1C(F)(F)F,–,"inconclusive [inhibitor, partial curve, poor fit]"
Fc1ccc2nc(N3CCOCC3)sc2c1,inactive: 79.5%,–
COc1ccccc1CCNS(=O)(=O)c1cc2c3c(c1)CCN3C(=O)CC2,–,"inconclusive [inhibitor, single point]"
Cn1c(-c2cccc(F)c2)nc2c1c(=O)[nH]c(=O)n2Cc1ccccc1,inactive: -27.7%,–
C[C@]12C(=O)N(c3ccc(C(F)(F)F)cc3)C(=O)N1[C@@H]1c3ccccc3OC[C@@H]1[C@H]2c1ccccc1,–,"inconclusive [inhibitor, partial curve, poor fit]"
Cc1ccnc(SCC(=O)Nc2sccc2C#N)n1,inactive: 37.6%,–
Cc1ccc(CSc2nc3c(c(=O)[nH]2)C(c2ccncc2)C2=C(CCCC2=O)N3)cc1 (stereo not given),–,"inconclusive [inhibitor, partial curve, poor fit]"
CCCn1cccc(C(=O)Nc2ccc(OC)cc2)c1=O,inactive: 8.1%,–
Cc1cccc(N(Cc2cc(=O)[nH]c3ccccc23)C(=O)CCl)c1,–,"inconclusive [inhibitor, partial curve, poor fit]"
CCc1ccc(NC(=O)CSc2nc(-c3ccc(C)cc3)nc3c2Cc2c(CO)cnc(C)c2O3)cc1,inactive: 2.56%,–
Cc1cc(S(=O)(=O)n2[nH]c(=O)c(CCO)c2C)c(Cl)cc1Cl,inactive: 3.37%,–
CC(C1CC2CCC1C2)N1CC(O)=C(c2nc3ccccc3[nH]2)C1=N (stereo not given),–,"inconclusive [inhibitor, partial curve, poor fit]"
CC1(C)Cc2cccc(OCC(=O)OCc3nnc(-c4ccccc4)o3)c2O1,inactive: -19.6%,–

Structure (SMILES),"activity change, negative = inhibition",Potency
Nc1c(C(=O)N/N=C/c2ccc(F)cc2)oc2nc(-c3ccccc3)cc(-c3ccco3)c12,–,"inconclusive [inhibitor, single point]"
CC(=O)c1ccc(NC(=O)c2ccc(-n3cnnn3)cc2)cc1,–,"inconclusive [inhibitor, partial curve, poor fit]"
Cc1ccc(-c2nnc(N3CC(C)OC(C)C3)c3ccccc23)cc1 (stereo not given),–,"inconclusive [inhibitor, single point]"
CCCCCCCSc1nsc(N)n1,inactive: 8.06%,–
O=C(NNc1c2ccccc2nc2ccccc12)c1cc2ccccc2cc1O,–,active: 11.7 µM
CCc1noc(C)c1C(=O)Nc1cc(S(=O)(=O)N2CCOCC2)ccc1OC(C)C,–,"inconclusive [inhibitor, partial curve]"
Nc1ncc2c(n1)-c1ccoc1CC2,inactive: -9.21%,–
COCCn1c(CN2CCC(Cc3ccccc3)CC2)nc2c1c(=O)n(C)c(=O)n2C,–,"inconclusive [inhibitor, partial curve]"
CC(NC(=O)c1ccccc1NS(=O)(=O)c1ccc(CCC(=O)O)cc1)c1ccccc1 (stereo not given),–,"inconclusive [inhibitor, single point]"
Cn1c(=O)n(Cc2ccccc2F)c(=O)c2c1nc1n2CCN1Cc1ccco1,–,"inconclusive [inhibitor, single point]"
Cc1ccc(C(=O)OCC(=O)N2CCc3ccccc32)cc1,inactive: 142%,–
CCN(CC)CCCNC(=O)Cn1nc([N+](=O)[O-])c(Cl)c1C,–,"inconclusive [inhibitor, partial curve, poor fit]"
CCCC(O)(c1ccc(CC)cc1)C(CN1CCOCC1)c1ccccc1 (stereo not given),–,active: 0.928 µM
CCCCc1ccc(/C(C)=N/Nc2cc(N3CCOCC3)nc(C)n2)cc1,–,"inconclusive [inhibitor, single point]"
CCCCCn1c(N(C)Cc2ccccc2)nc2c1c(=O)[nH]c(=O)n2C,–,"inconclusive [inhibitor, single point]"
CCOC(=O)C1=C(C)N(CC)C(=S)NC1c1ccccc1OC(F)F (stereo not given),–,"inconclusive [inhibitor, partial curve]"
N#C/C(=C\c1cccc(NC(=O)c2ccccc2Cl)c1)C(=O)NCCc1ccccc1,inactive: 11.4%,–
CCCNC(=O)c1cc2c3ccccc3n(C)c2s1,–,"inconclusive [inhibitor, single point]"
COC(=O)c1ccc(COc2ccccc2/C=C(\C#N)C(=O)Nc2ccc(C)cc2C)cc1,inactive: 9.26%,–
Cc1cc(Nc2ccc(Cl)cc2)n2nnnc2n1,–,"inconclusive [inhibitor, single point]"
CCOC(=O)C(CCCOc1cccc(OC)c1)C(=O)OCC,–,"inconclusive [inhibitor, single point]"
Cc1cccc(NC(=O)C2CCCN(S(=O)(=O)c3ccc(-n4cnnn4)cc3)C2)c1 (stereo not given),inactive: -29.4%,–
COCc1cc(C)nc(SCC(=O)Nc2cc3c(cc2C#N)OCO3)c1C#N,inactive: 2.98%,–
C=CCc1cccc(/C=C/c2cc(=O)c3ccccc3[nH]2)c1O,–,active: 0.131 µM
O=C(N/N=C/c1cc([N+](=O)[O-])ccc1O)C1CCCCC1,–,"inconclusive [inhibitor, single point]"

Structure (SMILES),"activity change, negative = inhibition",Potency
CCOC(=O)C1=C(CN2c3ccccc3CC2C)NC(=O)NC1c1ccccc1 (stereo not given),–,"inconclusive [inhibitor, single point]"
Cc1ccc(-c2cc(C(=O)Nc3cc(C)ccc3O)no2)cc1,inactive: 487%,–
COc1ccc(-c2nc(N)ncc2-c2csc(C)n2)c(O)c1,inactive: -0.346%,–
CCOc1ccccc1NC(=O)COC(=O)c1cc[n+]([O-])cc1,–,"inconclusive [inhibitor, single point]"
CCN(CC(=O)Nc1ccc(NC(C)=O)cc1)C(=O)CN1C(=O)NC2(CCCC2)C1=O,inactive: 34.4%,–
COc1ccccc1NC(=O)N1C2CCCC1CC(NC(=O)c1ccccc1)C2 (stereo not given),inactive: -26.5%,–
Nc1scn[n+]1Cc1cccc2cccnc12,–,"inconclusive [inhibitor, single point]"
O=c1[nH]c(CN2CCN(C/C=C/c3ccccc3)CC2)nc2ccccc12,inactive: -18.4%,–
CCOC(=O)N1CCN(C(=O)C(C)N(c2ccc(Oc3ccccc3)cc2)S(C)(=O)=O)CC1 (stereo not given),–,active: 11.7 µM
NC(=S)N=Nc1c(O)n(CCCl)c2ccc(Cl)cc12,–,"inconclusive [inhibitor, single point]"
CCn1nc(NC(=O)c2ccncc2)c2cc3cc(C)ccc3nc21,inactive: 13.5%,–
Cc1ncoc1C(=O)N1CCCC(C(=O)c2ccc3c4c(cccc24)CC3)C1 (stereo not given),–,"inconclusive [inhibitor, partial curve, poor fit]"
COc1ccc(CCn2c(SCC(=O)Nc3cc(C)on3)nc3ccsc3c2=O)cc1OC,–,active: 8.28 µM
CCOC(=O)c1c(-c2ccccc2)oc2ccc(OCC(O)CNCCN(C)C)cc12 (stereo not given),–,active: 2.08 µM
CSc1nc2ccc(NC(=O)c3ccccn3)cc2s1,inactive: 69.1%,–
CN(C)S(=O)(=O)c1ccc(/C(O)=C2/C(=O)C(=O)N(Cc3cccnc3)C2c2ccco2)cc1 (stereo not given),inactive: 28.9%,–
Cc1ccc(-c2nn(-c3ccccc3)cc2/C=N/n2c(-c3ccncc3)n[nH]c2=S)cc1,–,"inconclusive [inhibitor, partial curve]"
COc1ccc2nc(NC(=O)c3ccc(NC(=O)C4CCCO4)cc3)sc2c1 (stereo not given),–,"inconclusive [inhibitor, single point]"
Cc1ccc(-n2nnnc2SCc2ccc(C(=O)O)cc2)cc1C,inactive: 8.55%,–
O=C(Nc1ncn[nH]1)c1ccccc1O,inactive: 80.2%,–
O=C(NNc1c2ccccc2nc2ccccc12)C12CC3CC(CC(C3)C1)C2,–,"inconclusive [inhibitor, single point]"
CC(C)c1c(C(=O)N/N=C/c2ccoc2)nnn1-c1nonc1N,inactive: 25.6%,–
CCCS(=O)(=O)N1CCC(C(=O)NCCN2CCC(Cc3ccccc3)CC2)CC1,–,active: 4.15 µM
COc1cccc(-c2cc(C(=O)NC3CCCC3)no2)c1,inactive: 149%,–
CN(C)c1cc[n+](CC(=O)Nc2ccc(Oc3ccccc3)cc2)cc1,–,"inconclusive [inhibitor, partial curve, poor fit]"
